Experimental data as given in the antibiotic and cytotoxicity screens of Wong et al. (2023).
The list shows a part of the results.

These compounds were tested on HepG2 (assay: cytotoxicity call (relative viability < 0.9)). Conditions: 10 µM.

SMILES	cytotoxicity call
COc1ccc(CNc2nc(N3CCCC3CO)ncc2C(=O)NCc2ncccn2)cc1Cl (configuration not stated)	inactive
COc1ccc(S(=O)(=O)N(C)C[C@@H]2OCCCC[C@@H](C)Oc3ccc(NC(=O)CCC(F)(F)F)cc3C(=O)N([C@H](C)CO)C[C@H]2C)cc1	inactive
C[C@@H]1CN([C@@H](C)CO)C(=O)c2cc(C#C[C@@H](C)O)cnc2O[C@@H]1CN(C)C(=O)CN1CCOCC1	inactive
Cn1c(=O)n2n(c1=O)[C@H](C1CC1)C=C1CN3[C@@H]([C@H](Cc4ccccc4)OC(=O)[C@@H]3COC(=O)NCCCCCC(=O)NO)[C@@H]12	inactive
COCC(=O)N(C)C[C@@H]1Oc2cc(-c3ccc(OC)cc3)ccc2S(=O)(=O)N([C@@H](C)CO)C[C@H]1C	inactive
O=P(O)(O)C(O)(Cn1ccnc1)P(=O)(O)O	inactive
COc1c(O)cc(O)cc1O	inactive
C[C@H]1CN([C@@H](C)CO)C(=O)c2cc(C#Cc3ccccn3)cnc2O[C@@H]1CN(C)C(=O)c1cnccn1	inactive
COCC#Cc1ccc2c(c1)O[C@H](CN(C)S(C)(=O)=O)[C@H](C)CN([C@@H](C)CO)S2(=O)=O	inactive
O=C(CN1CCOCC1)NCC[C@@H]1CC[C@H](NC(=O)c2ccccc2F)[C@@H](CO)O1	inactive
CN1CCN(C(=O)C[C@H]2C=C[C@@H](NC(=O)Nc3ccccc3F)[C@H](CO)O2)CC1	inactive
COc1ccc(S(=O)(=O)Nc2ccc3c(c2)C(=O)N([C@@H](C)CO)C[C@@H](C)[C@H](CN(C)C(=O)Nc2c(C)noc2C)OCCCC[C@H](C)O3)cc1	inactive
